# Data published in PubChem BioAssay (Tox21).
# The shares of active, inactive and inconclusive entries below differ from those in the screen. For some assays here: A potency beside an inconclusive call is a rough fit, not a confirmed value. Activity calls are given as the source filed them. Unless noted, calls follow the shape of the full dose curve.
# What was measured:
# [1] = biological target: Peroxisome proliferator-activated receptor gamma (Homo sapiens) (UniProt P37231); experiment: qHTS assay to identify small molecule antagonists of the peroxisome proliferator-activated receptor gamma (PPARg) signaling pathway (AID 743191); details: HEK293H PPARg-UAS-bla, beta-lactamase ratio, antagonist, 17 h; ratio activity, negative = inhibition: at 62.6 µM (top of the series) unless noted; also: nearly all actives have a fitted effect of over 30% in size
# Summary of the method: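 GeneBLAzer PPARg UAS-bla HEK293H cells carrying a UAS-driven beta-lactamase reporter were plated at 3000 cells/well, preincubated 5 h at 37C, then given compound for 17 h at 37C; LiveBLAzer B/G FRET substrate was read after 1 h at room temperature.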
# [2] = qHTS assay for small molecule agonists of the antioxidant response element (ARE) signaling pathway (AID 743202; active = well fitted activation curve with a large enough effect in the signal ratio in the repeat runs, not every such curve was filed as active; inconclusive = weak or mixed curves, or effect the other way; inactive = no such curve, though single readings can be large or run the other way; the % refers to the signal ratio; also: potency is read from the fitted curve at half-maximal effect); details: HepG2 ARE-bla reporter, beta-lactamase FRET, 16 h; activation: at 73.3 µM (top of the series) unless noted
# Summary of the method: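 Compounds delivered in DMSO to ARE-bla HepG2 cells (2,000 cells/well, pre-incubated 5 h) and left 16 h at 37 C. LiveBLAzer B/G FRET substrate then added for 2 h at RT before fluorescence reading.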
# [3] = qHTS assay to identify small molecule antagonists of the peroxisome proliferator-activated receptor delta (PPARd) signaling pathway - cell viability counter screen (AID 743213; active = well fitted curve in the direction sought with a large enough effect in the repeat runs; inconclusive = weak or mixed curves; inactive = no such curve, though single readings can be large; an effect the other way counts as inactive or inconclusive; also: nearly all actives have a fitted effect of over 50% in size); details: PPARd-bla HEK293H viability, CellTiter-Glo luminescence, 17 h; viability change, negative = cytotoxic: at 62 µM (top of the series) unless noted
# Summary of the method: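 Cytotoxicity counter screen: CellTiter-Glo luminescence read 30 min after addition, in the same wells as the reporter assay. There, PPARd UAS-bla HEK293H cells (3000/well) were treated 17 h at 37 C with compound and 300 nM L165041.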
# [4] = qHTS assay to identify small molecule agonists of the endoplasmic reticulum stress response signaling pathway (AID 1159516; active = well fitted activation curve with a large enough effect in the signal ratio in the repeat runs, not every such curve was filed as active; inconclusive = weak or mixed curves, or effect the other way; the % refers to the signal ratio; also: potency is read from the fitted curve at half-maximal effect); details: ESRE-bla HeLa, ER stress beta-lactamase reporter, 5 h; activation: at 61 µM (top of the series) unless noted
# Summary of the method: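 ER stress element reporter (bla) in HeLa. 1,500 cells/well, overnight attachment; 5 hr compound; 2 hr RT substrate; dual-emission fluorescence.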
# [5] = qHTS assay to identify small molecule agonists of the vitamin D receptor (VDR) signaling pathway - cell viability counter screen (AID 743224; active = well fitted curve in the direction sought with a large enough effect in the repeat runs; inconclusive = weak or mixed curves; inactive = no such curve, though single readings can be large; an effect the other way counts as inactive or inconclusive; also: nearly all actives have a fitted effect of over 50% in size)
# Summary of the method: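 VDR-bla cell line, quantitative HTS format; 16 h compound incubation (37C, 5% CO2); ATP-based CellTiter-Glo luminescence measured in the reporter assay wells.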
# [6] = qHTS assay for small molecule activators of the heat shock response signaling pathway (AID 743210; active = well fitted activation curve with a large enough effect in the signal ratio in the repeat runs, with a control signal flat, not every such curve was filed as active; inconclusive = weak or mixed curves; the % refers to the signal ratio; also: potency is read from the fitted curve at half-maximal effect;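 as to activation: HeLa cells with beta-lactamase reporter driven by heat shock elements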); details: HeLa HSE-bla reporter, beta-lactamase ratio, 5 h; activation: at 62.6 µM (top of the series)
# Summary of the method: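 Reporter gene assay: HeLa cells stably bearing an HSE-bla construct, compound treatment 5 h at 37 C, LiveBLAzer substrate 2.5 h at RT, fluorescence intensity.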
# [7] = biological target: Vitamin D3 receptor (Homo sapiens) (UniProt P11473); experiment: qHTS assay to identify small molecule agonists of the vitamin D receptor (VDR) signaling pathway (AID 743222); details: HEK293T VDR-UAS-bla, beta-lactamase FRET ratio, 16 h; activation: at 63.5 µM (top of the series) unless noted
# Summary of the method: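 Agonist activity measured in VDR-bla reporter cells. Exposure 16 h, 37C, 5% CO2; detection by B/G FRET substrate, 2 h RT.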
# [8] = qHTS assay to identify small molecule agonists of the farnesoid-X-receptor (FXR) signaling pathway - cell viability counter screen (AID 743218; active = well fitted curve in the direction sought with a large enough effect in the repeat runs; inconclusive = weak or mixed curves; inactive = no such curve, though single readings can be large; an effect the other way counts as inactive or inconclusive; also: nearly all actives have a fitted effect of over 45% in size; also: potency is read from the fitted curve at half-maximal effect); details: FXR-bla HEK293T viability, CellTiter-Glo luminescence, 16 h; viability change, negative = cytotoxic: at 62.6 µM (top of the series) unless noted
# Summary of the method: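 In GeneBLAzer FXR-UAS-bla HEK 293T cells, compounds act for 16 h at 37 C. Cell viability is then scored in the reporter wells by CellTiter-Glo, 30 min at RT, luminescence.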
# [9] = qHTS assay for small molecule activators of the heat shock response signaling pathway - cell viability counter screen (AID 743209; active = well fitted curve in the direction sought with a large enough effect in the repeat runs; inconclusive = weak or mixed curves; inactive = no such curve, though single readings can be large; an effect the other way counts as inactive or inconclusive; also: nearly all actives have a fitted effect of over 50% in size); details: HSE-bla HeLa viability, CellTiter-Glo luminescence, 5 h; activity change, negative = cytotoxicity: at 62.6 µM (top of the series) unless noted
# Summary of the method: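 Quantitative HTS format, Tox21 10K library. HeLa cells carrying an HSE-driven beta-lactamase reporter were treated 5 h at 37 C, then assessed for viability by CellTiter-Glo luminescence.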
# [10] = qHTS assay to identify small molecule agonists of the peroxisome proliferator-activated receptor delta (PPARd) signaling pathway - cell viability counter screen (AID 743211; active = well fitted curve in the direction sought with a large enough effect in the repeat runs; inconclusive = weak or mixed curves; inactive = no such curve, though single readings can be large; an effect the other way counts as inactive or inconclusive; also: nearly all actives have a fitted effect of over 55% in size); details: PPARd-bla HEK293H viability, CellTiter-Glo luminescence, 17 h; activity change, negative = cytotoxicity: at 62.6 µM (top of the series) unless noted
# Summary of the method: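 Read-out: CellTiter-Glo luminescence, 30 min RT, measured in the same wells as the beta-lactamase reporter. Cells: GeneBLAzer PPAR delta UAS-bla HEK293H, 3000 cells/well, compound exposure 17 h at 37C.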
# [11] = biological target: Peroxisome proliferator-activated receptor delta (Homo sapiens) (UniProt Q03181); experiment: qHTS assay to identify small molecule antagonists of the peroxisome proliferator-activated receptor delta (PPARd) signaling pathway (AID 743215; active = well fitted inhibition curve with a large enough effect in the signal ratio in the repeat runs, not every such curve was filed as active; inconclusive = weak or mixed curves, or effect the other way; inactive = no such curve, though single readings can be large or run the other way; the % refers to the signal ratio;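 also: cells stimulated with agonist L165041 at 300 nM final during compound exposure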; also: potency is read from the fitted curve at half-maximal effect); details: HEK293H PPARd-UAS-bla, beta-lactamase FRET ratio, antagonist, 17 h; ratio activity, negative = inhibition: at 62 µM (top of the series) unless noted
# Summary of the method: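 Antagonist-mode beta-lactamase reporter screen: HEK293H cells with UAS-bla under PPARd control, stimulated by 300 nM L165041 (final) alongside test compound for 17 h at 37 C, then FRET fluorescence after 2 h substrate incubation.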
# [12] = biological target: Bile acid receptor (Homo sapiens) (UniProt Q96RI1); experiment: qHTS assay to identify small molecule agonists of the farnesoid-X-receptor (FXR) signaling pathway (AID 743220; active = well fitted activation curve with a large enough effect in the signal ratio in the repeat runs, not every such curve was filed as active; inconclusive = weak or mixed curves, or effect the other way; the % refers to the signal ratio; also: potency is read from the fitted curve at half-maximal effect); details: HEK293T FXR-UAS-bla, beta-lactamase FRET ratio, 16 h; activation: at 62.6 µM (top of the series) unless noted
# Summary of the method: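 Beta-lactamase reporter under UAS control in GeneBLAzer FXR HEK 293T cells (5000/well) measured with LiveBLAzer FRET substrate after 2 h at room temperature. Compound exposure lasted 16 h at 37C.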
# [13] = qHTS assay to identify small molecule antagonists of the farnesoid-X-receptor (FXR) signaling pathway - cell viability counter screen (AID 743221; active = well fitted cell-killing curve with a large enough effect in the repeat runs, not every such curve was filed as active; inconclusive = weak or mixed curves, or effect the other way; inactive = no such curve, though single readings can be large or run the other way; also: nearly all actives have a fitted effect of over 50% in size); details: FXR-bla HEK293T viability, CellTiter-Glo luminescence, 16 h; activity change, negative = cytotoxicity: at 62.6 µM (top of the series) unless noted
# Summary of the method: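 HEK 293T FXR-bla cells, 5 h pre-incubation; compound + CDCA 50 uM final, 16 h, 37 C; beta-lactamase FRET read first, then CellTiter-Glo luminescence, 30 min RT.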
# [14] = biological target: Peroxisome proliferator-activated receptor delta (Homo sapiens) (UniProt Q03181); experiment: qHTS assay to identify small molecule agonists of the peroxisome proliferator-activated receptor delta (PPARd) signaling pathway (AID 743212); details: HEK293H PPARd-UAS-bla, beta-lactamase FRET ratio, 17 h; activation: at 62.6 µM (top of the series) unless noted
# Summary of the method: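 A PPARd-bla HEK293H line with beta-lactamase under an Upstream Activator Sequence is treated with compounds at 37 C. Substrate loading for 2 h at room temperature precedes the fluorescence measurement.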
# [15] = biological target: Vitamin D3 receptor (Homo sapiens) (UniProt P11473); experiment: qHTS assay to identify small molecule antagonists of the vitamin D receptor (VDR) signaling pathway (AID 743223; active = well fitted inhibition curve with a large enough effect in the signal ratio in the repeat runs, not every such curve was filed as active; inconclusive = weak or mixed curves, or effect the other way; inactive = no such curve, though single readings can be large or run the other way; the % refers to the signal ratio; also: potency is read from the fitted curve at half-maximal effect); details: VDR-UAS-bla HEK293T, beta-lactamase FRET ratio, 16 h; activity change, negative = inhibition: at 61 µM (top of the series) unless noted
# Summary of the method: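 Beta-lactamase reporter read-out: FRET substrate fluorescence after 2 h at room temperature, following 16 h exposure of VDR-bla cells to test compound plus 3 nM (final) 1alpha,25-dihydroxyvitamin D3 agonist at 37C.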
# [16] = qHTS assay to identify small molecule antagonists of the vitamin D receptor (VDR) signaling pathway - cell viability counter screen (AID 743225; active = well fitted curve in the direction sought with a large enough effect in the repeat runs; inconclusive = weak or mixed curves; inactive = no such curve, though single readings can be large; an effect the other way counts as inactive or inconclusive; also: nearly all actives have a fitted effect of over 50% in size); details: VDR-bla HEK293T viability, CellTiter-Glo luminescence, 16 h; viability change, negative = cytotoxic: at 61 µM (top of the series) unless noted
# Summary of the method: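 Viability counter screen run in the same wells as the beta-lactamase reporter assay: HEK 293T VDR-UAS-bla cells, 16 h compound exposure at 37C with 3 nM (final) 1-alpha,25-dihydroxyvitamin D3. CellTiter-Glo luminescence, 30 min, room temperature.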
# % is scaled to controls: 0 for no effect and ±100 for the full control effect; tags tell the direction and shape of the fitted curve or compound fluorescence and quenching.
# Sequence of UniProt P37231 (P37231 whole entry, looked up): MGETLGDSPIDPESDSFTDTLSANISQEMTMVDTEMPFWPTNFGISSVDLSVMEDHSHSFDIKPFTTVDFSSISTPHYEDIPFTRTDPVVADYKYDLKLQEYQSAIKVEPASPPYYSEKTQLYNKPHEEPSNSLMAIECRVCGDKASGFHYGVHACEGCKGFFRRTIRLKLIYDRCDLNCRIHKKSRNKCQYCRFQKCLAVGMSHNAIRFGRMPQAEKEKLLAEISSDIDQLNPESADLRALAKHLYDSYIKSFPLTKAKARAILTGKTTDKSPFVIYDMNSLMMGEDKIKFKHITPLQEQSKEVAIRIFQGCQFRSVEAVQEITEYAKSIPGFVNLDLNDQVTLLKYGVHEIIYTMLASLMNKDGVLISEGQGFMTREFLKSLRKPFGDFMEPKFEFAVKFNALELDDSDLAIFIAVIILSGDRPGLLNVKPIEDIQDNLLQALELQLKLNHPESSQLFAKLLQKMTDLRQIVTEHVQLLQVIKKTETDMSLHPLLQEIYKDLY
# Sequence of UniProt Q03181 (Q03181 whole entry, looked up): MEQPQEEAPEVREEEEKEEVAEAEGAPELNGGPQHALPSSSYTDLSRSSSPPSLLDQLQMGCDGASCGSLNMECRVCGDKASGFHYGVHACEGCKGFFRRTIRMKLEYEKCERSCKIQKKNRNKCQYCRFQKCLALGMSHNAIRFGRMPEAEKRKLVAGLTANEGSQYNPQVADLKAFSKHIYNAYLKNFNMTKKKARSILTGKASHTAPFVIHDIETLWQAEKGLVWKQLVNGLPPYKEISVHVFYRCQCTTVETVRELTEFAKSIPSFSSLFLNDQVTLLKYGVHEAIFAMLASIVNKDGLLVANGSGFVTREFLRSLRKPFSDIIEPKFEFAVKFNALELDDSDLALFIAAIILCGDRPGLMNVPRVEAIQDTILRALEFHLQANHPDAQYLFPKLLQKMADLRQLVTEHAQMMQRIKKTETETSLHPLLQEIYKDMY
# Sequence of UniProt P11473 (P11473 whole entry, looked up): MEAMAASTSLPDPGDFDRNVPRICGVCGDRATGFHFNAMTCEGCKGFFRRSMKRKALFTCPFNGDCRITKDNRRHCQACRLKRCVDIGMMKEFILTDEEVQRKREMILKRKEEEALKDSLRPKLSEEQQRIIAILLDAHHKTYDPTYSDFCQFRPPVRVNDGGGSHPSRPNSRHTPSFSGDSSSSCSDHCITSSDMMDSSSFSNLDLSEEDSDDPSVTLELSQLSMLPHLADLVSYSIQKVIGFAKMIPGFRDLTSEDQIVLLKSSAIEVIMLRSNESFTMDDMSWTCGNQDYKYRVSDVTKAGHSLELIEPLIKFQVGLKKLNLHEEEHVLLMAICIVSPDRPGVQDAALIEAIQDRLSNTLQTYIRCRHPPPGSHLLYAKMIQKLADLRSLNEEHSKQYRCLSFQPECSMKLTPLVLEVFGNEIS
# Sequence of UniProt Q96RI1 (Q96RI1 whole entry, looked up): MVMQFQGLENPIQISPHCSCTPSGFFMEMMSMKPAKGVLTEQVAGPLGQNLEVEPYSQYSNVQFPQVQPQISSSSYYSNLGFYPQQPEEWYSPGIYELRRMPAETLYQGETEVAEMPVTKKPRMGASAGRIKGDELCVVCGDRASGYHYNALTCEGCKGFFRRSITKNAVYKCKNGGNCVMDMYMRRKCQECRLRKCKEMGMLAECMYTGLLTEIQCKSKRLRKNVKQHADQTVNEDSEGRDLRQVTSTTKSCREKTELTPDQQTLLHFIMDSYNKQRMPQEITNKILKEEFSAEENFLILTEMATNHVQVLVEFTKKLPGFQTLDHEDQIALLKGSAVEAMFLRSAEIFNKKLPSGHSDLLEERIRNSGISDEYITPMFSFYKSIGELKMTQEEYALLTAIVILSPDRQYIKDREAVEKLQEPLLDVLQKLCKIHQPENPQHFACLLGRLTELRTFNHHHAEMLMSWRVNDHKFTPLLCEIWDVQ
compound,measurement,setting,value
CC(C)(C1CCC(O)CC1)C1CCC(O)CC1 (stereo not drawn),"ratio activity, negative = inhibition",[1],inconclusive: 0.76%
same,Potency,[2],inactive
same,Potency,[3],inactive
same,Potency,[4],inactive
O=C(O)C(F)(F)C(F)(F)C(F)(F)C(F)(F)C(F)(F)C(F)(F)C(F)(F)C(F)(F)C(F)(F)C(F)(F)F,"ratio activity, negative = inhibition",[1],inconclusive: 0.619%
same,Potency,[2],"inconclusive: 20.5 µM [rising, partial curve]"
same,Potency,[5],inactive
same,activation,[4],inconclusive: 5.06%
CN(C)c1ccc(N=Nc2ccccc2)cc1,"ratio activity, negative = inhibition",[1],inconclusive: -13.3%
same,Potency,[2],active: 8.64 µM
same,Potency,[6],"inconclusive: 38.9 µM [cytotoxic, partial curve, poor fit]"
same,activation,[7],inconclusive: -25.1%
same,Potency,[4],"inconclusive: 43.7 µM [inhibitor, partial curve, poor fit]"
CC(=O)C=C(C)C,Potency,[1],inactive
same,activation,[2],inconclusive: -1.32%
same,Potency,[8],"inconclusive: 54.9 µM [rising, single point]"
same,Potency,[4],inactive
CS/C(C)=N/OC(=O)N(C)SN(C)C(=O)O/N=C(\C)SC,"ratio activity, negative = inhibition",[1],inconclusive: 13.7%
same,Potency,[9],inactive
same,Potency,[6],inconclusive: 41.2 µM
same,Potency,[10],inactive
same,"ratio activity, negative = inhibition",[11],inconclusive: 8.51%
same,Potency,[4],inconclusive: 54.9 µM
O=[N+]([O-])O[C@H]1CO[C@H]2[C@@H]1OC[C@H]2O[N+](=O)[O-],Potency,[1],inactive
same,Potency,[2],inactive
same,Potency,[10],inactive
same,activation,[12],inconclusive: -4.73%
same,Potency,[13],inactive
same,Potency,[4],inactive
[O-][Cl+]O,Potency,[1],inactive
same,activation,[2],inconclusive: -0.0137%
same,Potency,[6],inactive
same,Potency,[13],inactive
same,Potency,[4],"inconclusive: 0.0017 µM [rising, full curve, poor fit]"
C=C1C[C@@H]2[C@H](CC[C@]3(C)C(=O)CC[C@@H]23)[C@@]2(C)C=CC(=O)C=C12,"ratio activity, negative = inhibition",[1],inconclusive: 9.86%
same,Potency,[2],active: 2.66 µM
same,activation,[14],inconclusive: -8.3%
same,Potency,[3],inactive
same,Potency,[11],"inconclusive: 18.8 µM [activator, partial curve, poor fit]"
same,Potency,[12],"inconclusive: 29.8 µM [rising, partial curve, poor fit]"
same,Potency,[15],"inconclusive: 0.952 µM [activator, full curve, poor fit]"
same,Potency,[16],inactive
same,Potency,[4],inactive
CCCCC(CC)COC(=O)c1ccc(C(=O)OCC(CC)CCCC)c(C(=O)OCC(CC)CCCC)c1 (stereo not drawn),"ratio activity, negative = inhibition",[1],inconclusive: 11.9%
same,activation,[2],inconclusive: -0.86%
same,Potency,[8],inactive
same,Potency,[7],inactive
same,Potency,[16],inactive
same,Potency,[4],"inconclusive: 61.7 µM [activator, single point]"
CCCCN(CC)C(=O)SCCC,"ratio activity, negative = inhibition",[1],inconclusive: -0.183% [at 81.1 µM]
same,Potency,[2],inactive
same,"activity change, negative = inhibition",[15],inconclusive: -1.24%
same,Potency,[4],inactive
